Test results as given in the supplement of paper PMC3334620.
The full ranking holds about 33,000 sequences; the median of “E-score (-0.5 to 0.5)” is about -0.043, and the highest 2% start at about 0.37. This is one part of the list.

Biological target: T1, Upc2 (UniProt Q12151)
T1 sequence: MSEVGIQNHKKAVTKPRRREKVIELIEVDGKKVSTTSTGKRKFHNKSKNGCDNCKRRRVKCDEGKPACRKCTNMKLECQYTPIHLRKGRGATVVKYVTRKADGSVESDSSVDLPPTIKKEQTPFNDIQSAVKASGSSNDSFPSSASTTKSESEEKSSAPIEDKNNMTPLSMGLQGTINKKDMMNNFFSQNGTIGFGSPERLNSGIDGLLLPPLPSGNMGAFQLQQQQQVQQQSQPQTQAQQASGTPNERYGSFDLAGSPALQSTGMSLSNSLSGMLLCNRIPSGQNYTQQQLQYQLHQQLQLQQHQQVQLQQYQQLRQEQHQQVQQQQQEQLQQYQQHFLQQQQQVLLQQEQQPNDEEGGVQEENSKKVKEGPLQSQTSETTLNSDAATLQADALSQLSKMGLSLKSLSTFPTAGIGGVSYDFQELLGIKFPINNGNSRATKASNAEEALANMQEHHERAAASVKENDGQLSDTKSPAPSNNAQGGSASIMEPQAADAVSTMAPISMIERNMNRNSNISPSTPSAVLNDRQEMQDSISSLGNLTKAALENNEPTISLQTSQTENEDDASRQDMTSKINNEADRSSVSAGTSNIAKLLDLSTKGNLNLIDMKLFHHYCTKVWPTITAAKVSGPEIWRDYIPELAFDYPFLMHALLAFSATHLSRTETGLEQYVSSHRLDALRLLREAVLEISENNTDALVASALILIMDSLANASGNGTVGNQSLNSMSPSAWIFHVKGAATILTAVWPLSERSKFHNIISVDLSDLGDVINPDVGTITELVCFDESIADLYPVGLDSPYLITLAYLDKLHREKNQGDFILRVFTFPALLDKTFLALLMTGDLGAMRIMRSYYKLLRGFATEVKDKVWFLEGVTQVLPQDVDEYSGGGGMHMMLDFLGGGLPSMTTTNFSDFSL
Test: PBM E-score (8-mer binding enrichment) (E-score (-0.5 to 0.5)); higher = stronger / more preferred TF binding; most listed sequences are background and not binding sites
Details: protein concentration: 200 nM; construct: GST-full length
How it was run: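 Each ungapped eight-base word and its reverse complement, pooled, received an E-score from the Universal PBM Analysis Suite. Underlying scans, normalised with masliner, recorded fluorescent anti-GST bound to GST-tagged yeast transcription factors. These were applied at about 100-200 nM to universal all-10-mer Agilent arrays double-stranded by primer extension.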

Row | Sequence | PBM E-score
1 | CGAGCTCA | 0.273
2 | CAGGTAAG | 0.0316
3 | AGGCGGTA | -0.0428
4 | GTAAGCGA | 0.388
5 | CCATAAAC | 0.24
6 | TCCGAGAA | 0.248
7 | GAATGACA | -0.158
8 | AATAGCGT | -0.00637
9 | CATACACG | 0.191
10 | CTGCAGGA | -0.194
11 | AGGTCGAA | -0.0868
12 | GGGTGGCA | -0.223
13 | GGTCCCAC | 0.0957
14 | AGACGCGC | 0.0974
15 | CGACCCGA | 0.164
16 | AAGAATGT | -0.0883
17 | CCAGGCGG | -0.151
18 | GTGGCCTA | -0.114
19 | CCCTTTCA | -0.157
20 | ATTAAGGC | -0.131
21 | CACTTTAC | 0.15
22 | CTAATCAA | -0.0908
23 | CGTCTAAC | 0.0838
24 | AGGACGCC | -0.118
25 | CAGCGAAA | 0.0819

Row | Sequence | PBM E-score
26 | GGTTACGA | 0.408
27 | ATGGGGTG | -0.188
28 | TTGATAAA | 0.0742
29 | ATAACGGG | -0.0555
30 | ATGAATCA | -0.0273
31 | GACAAGTC | -0.0895
32 | CCGTATCA | 0.334
33 | GCTAATAC | 0.024
34 | CTCTTCCA | -0.0797
35 | ACATTATA | 0.0353
36 | ATTACAAG | -0.139
37 | CACGGGGA | -0.233
38 | AATCGCAA | 0.0942
39 | CCTTCGTA | 0.441
40 | CTTTCGGC | -0.317
41 | CACATCTG | -0.242
42 | AGTACGGG | 0.122
43 | TAAGCTAA | 0.177
44 | ATACCGGC | 0.0554
45 | CTGTTTAA | 0.0306
46 | TCTGGTAA | 0.0299
47 | CGATAGTC | 0.121
48 | CGTGGCAA | -0.199
49 | TCATTTAA | -0.218
50 | GTACCGAC | 0.141

Row | Sequence | PBM E-score
51 | AGAACTCT | -0.0634
52 | AGGCACCG | 0.0555
53 | GAGAGGCA | -0.134
54 | CCACACCA | -0.0693
55 | AAGTAAAC | 0.314
56 | GTCGCCAC | 0.0198
57 | ATGGATAC | 0.0889
58 | AAACAAAG | -0.0514
59 | GCGTAACC | 0.154
60 | ATGGTTAC | 0.0571
61 | CGCCACCA | -0.212
62 | CATATAGC | -0.0979
63 | TATAACGA | 0.286
64 | ATCGGCTA | -0.0554
65 | CCCACCTA | -0.159
66 | ACGAGTGC | 0.377
67 | ACTAAACC | 0.0385
68 | CCGTTGAA | -0.0413
69 | CAGAATCC | -0.129
70 | GAGTGACC | 0.0211
71 | GGCAATTA | -0.0875
72 | AAGGGCAG | -0.211
73 | ACAGTAAA | 0.148
74 | GGATTGGA | -0.118
75 | CGACTTAC | 0.128

Row | Sequence | PBM E-score
76 | CCCGTCAC | -0.119
77 | ATCGATGC | -0.0035
78 | AGAAGCCA | -0.125
79 | ATGAGGAG | -0.325
80 | GTCCAGGA | -0.0554
81 | GCATTTCC | -0.0365
82 | TTCACCAA | -0.00044
83 | AGTATCAC | -0.0622
84 | GATCTTCC | -0.106
85 | AATCACGG | -0.119
86 | GACGATAA | 0.111
87 | CCGACTAG | -0.135
88 | AAATTTAT | 0.0842
89 | CTTAATGA | -0.00126
90 | AGCGGCAT | -0.044
91 | AGAATCGC | 0.106
92 | CACTATGC | 0.0183
93 | GTCGTACA | 0.483
94 | ATGCGGAA | 0.107
95 | CCACACGG | -0.0115
96 | AACACTAC | 0.0431
97 | CGGCACAG | -0.0711
98 | GAGATTTA | -0.0239
99 | GGATTGAC | -0.0986
100 | CCGCGAAA | -0.0199

Row | Sequence | PBM E-score
101 | AGCCGTGC | -0.15
102 | ACTTAATA | -0.018
103 | CAAAGCTA | 0.0114
104 | ACGCCAAA | 0.0764
105 | AAGTATCA | -0.174
106 | ATCGTTGG | 0.0354
107 | AAGATTAC | 0.0318
108 | ACCTGAGG | -0.237
109 | GCGATAGA | 0.126
110 | GATCGGAC | -0.0578
111 | ATATGCAC | -0.00312
112 | AGGTGGTC | -0.184
113 | GTTACCCA | -0.175
114 | ACATGTAG | -0.0513
115 | GCCTGGAA | -0.182
116 | ATATAGCA | -0.0248
117 | ACACGCGG | -0.186
118 | GCTACACC | -0.158
119 | CAAACCAA | -0.0557
120 | CGATAACA | -0.0412
121 | CAACACTG | -0.0451
122 | CGCTACCC | -0.155
123 | AAACTGCC | 0.148
124 | CGTTCAGA | 0.372
125 | AGTACAAA | -0.013

Row | Sequence | PBM E-score
126 | CGGCGATA | 0.136
127 | CCGCAGAG | -0.311
128 | AACACGAG | 0.144
129 | ACTGATAT | -0.00224
130 | AGCTAACC | -0.0678
131 | ACACAAAT | 0.0348
132 | AAGCATGG | -0.262
133 | ATGATGCA | 0.154
134 | ATTGCATA | -0.0863
135 | AGGTGGAG | -0.392
136 | CGATGCGA | 0.16
137 | GAAACAAA | 0.0262
138 | CTAGCTAG | -0.0655
139 | AACCAGGT | -0.19
140 | ACTTTCGC | 0.0685
141 | AGGGCCGC | -0.259
142 | AACCGCGC | -0.00774
143 | GAAGTTCA | -0.0526
144 | AATAGCAT | -0.143
145 | AGCTCTGA | -0.152
146 | AGACGACC | 0.132
147 | AAAGAAAG | -0.0521
148 | AGCGACCT | 0.132
149 | GCTAGTCC | -0.0309
150 | AATTCTCA | -0.201

Row | Sequence | PBM E-score
151 | GGCTGATA | -0.0951
152 | AGGAGCGC | -0.0389
153 | ACGAGCGG | 0.369
154 | GTACGGAC | 0.35
155 | GAATTACC | 0.0138
156 | GGCTGCCC | -0.013
157 | ATCGTGGC | -0.0693
158 | TGCAAAAA | 0.0592
159 | GGGGATTA | -0.0834
160 | ATTTCTCG | 0.13
161 | CCGGTTGA | -0.148
162 | CGAGTATC | 0.166
163 | GCGCCAGC | -0.0758
164 | ACAGGGGG | -0.307
165 | AAATGGAT | -0.0355
166 | ATCCCGGA | -0.306
167 | CAACCAGC | -0.203
168 | CACAGTCA | -0.154
169 | ACGTACCC | 0.203
170 | CGTTTCAG | 0.283
171 | AGCATGAG | -0.253
172 | CATTTACC | -0.152
